Source: patent EP4613276A2 (Actym Therapeutics, Inc., dated 2025)

Molecular target: T1, human TGF-β1 (R&D Systems) (human, UniProt P01137 fragment)
T1 construct: Bought reagent used in the direct ELISA
Experiment: direct ELISA of transfected HEK293T supernatant with human TGF-β1; the grade is printed as the payload's expression level

T1 sequence (P01137 279-390 limits assumed): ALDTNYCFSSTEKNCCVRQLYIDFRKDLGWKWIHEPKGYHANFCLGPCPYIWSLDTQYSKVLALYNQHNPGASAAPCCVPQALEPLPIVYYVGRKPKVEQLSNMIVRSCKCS

B1: human soluble TGFβ receptor II fused with a human IgG1 Fc (Fc fusion)
chain: TIPPHVQKSVNNDMIVTDNNGAVKFPQLCKFCDVRFSTCDNQKSCMSNCSITSICEKPQEVCVAVWRKNDENITLETVCHDPKLPYHDFILEDAASPKCIMKEKKKPGETFFMCSCSSDECNDNIIFSEEYNTSNPD[not shown - human IgG1 Fc]
notes: Tested as HEK293T supernatant; also called hu sTGFβRII-Fc
- binding result: binds
